Source: the supplement of paper PMC3334620
Whole data set: some 33,000 sequences, median “E-score (-0.5 to 0.5)” near -0.04, cut for the highest 2% near 0.36. Some of the results follow.

molecular target: T1, Hmlalpha2 (UniProt P0CY09); experiment: PBM E-score (8-mer binding enrichment) (E-score (-0.5 to 0.5)); higher = stronger / more preferred TF binding; most listed sequences are background and not binding sites; conditions: protein concentration: 200 nM; construct: GST-full length
T1 sequence: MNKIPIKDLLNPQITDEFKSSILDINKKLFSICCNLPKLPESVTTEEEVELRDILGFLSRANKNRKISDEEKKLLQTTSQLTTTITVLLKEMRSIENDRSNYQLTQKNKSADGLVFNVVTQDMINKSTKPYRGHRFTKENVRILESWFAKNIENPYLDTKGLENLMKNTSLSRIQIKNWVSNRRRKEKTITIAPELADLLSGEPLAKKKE
How it was run: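 PURExpress in vitro transcription/translation supplied GST-tagged yeast transcription factors, either full-length or DNA-binding domain. Applied at about 100-200 nM to universal all-10-mer Agilent arrays double-stranded by primer extension, the bound protein was detected with fluorescent anti-GST. E-scores, modified Wilcoxon-Mann-Whitney statistics, were given by the Universal PBM Analysis Suite to ungapped eight-base words pooled with their reverse complements after masliner normalisation.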

| Sequence | PBM E-score |
| --- | --- |
| CGGGATCC | -0.14 |
| CTTTACTA | 0.252 |
| CCGTGAAA | 0.0347 |
| GCCCCTGA | -0.167 |
| AACTTGCA | 0.0684 |
| ACGGTTTG | 0.0193 |
| CAATGGAA | -0.053 |
| ATAAATAA | 0.258 |
| GTGAGCCA | -0.0308 |
| CCTCTTCA | -0.233 |
| ATAAGTAA | 0.16 |
| GTACCTCA | 0.191 |
| CTAGGCAC | -0.13 |
| GCCTGATA | -0.0588 |
| AAAGGAAG | -0.141 |
| CTCGCGAA | -0.0421 |
| ACATACCG | 0.174 |
| AGCATCAT | 0.0296 |
| CAAATTTC | 0.0555 |
| TACGATAA | 0.0694 |
| AACTCGCT | 0.12 |
| GACCACTC | -0.218 |
| AGCTCGCA | -0.122 |
| ACAGTCTG | -0.159 |
| GAGAGCCC | -0.409 |

| Sequence | PBM E-score |
| --- | --- |
| GAGCCAGA | -0.132 |
| TCGCCCGA | -0.202 |
| CGGATAGC | -0.139 |
| CCGTCAAA | 0.0481 |
| GATTTGAA | 0.17 |
| ACATCGAT | 0.189 |
| ATTAGAGC | 0.123 |
| TACTCAGA | 0.0601 |
| ACTAAGGA | -0.0843 |
| CTGACTGC | -0.0336 |
| GTGGAGGA | -0.273 |
| GACACGCC | 0.146 |
| GGAAATTA | 0.137 |
| CTCAGTCA | -0.0346 |
| AGCTGGTA | -0.184 |
| AACGGGTC | -0.173 |
| AGCAAGAT | -0.0474 |
| GTTTTGTA | 0.299 |
| GACGCGAC | 0.0875 |
| CTCTTGAC | -0.0625 |
| CTCCCTTC | -0.368 |
| AATACAGA | 0.204 |
| TACTTCTA | 0.163 |
| ACGAGAGG | -0.0563 |
| CGTACATA | 0.363 |

| Sequence | PBM E-score |
| --- | --- |
| AAGCCGAG | -0.239 |
| GCGAATCC | -0.192 |
| ACCCGACT | -0.0515 |
| AGCGGTCA | -0.224 |
| TCTATTCA | 0.145 |
| CATTCGGC | -0.189 |
| GGCTGACA | -0.114 |
| AAAGGTGG | 0.00905 |
| ACGGCCTA | 0.076 |
| ACTCAGAT | -0.0191 |
| ACGATTAA | 0.142 |
| ACCTGAGC | -0.0663 |
| AGATGGCA | -0.0466 |
| TCCGCGCA | -0.0562 |
| AACTATCA | 0.0587 |
| GTATTACA | 0.403 |
| CTGCGCGC | -0.00351 |
| CGGTGCCA | -0.354 |
| AAAGCCCG | -0.197 |
| GTTCAGAA | 0.0704 |
| AATTACCG | 0.142 |
| AACATTCG | 0.099 |
| AGTGGATG | -0.0671 |
| AACAAGAA | 0.282 |
| TACCTGAA | 0.0671 |

| Sequence | PBM E-score |
| --- | --- |
| ACAGACCC | 0.0389 |
| CAACAGCA | 0.0842 |
| CAAACGAG | 0.179 |
| AATCATAG | 0.151 |
| ATATTGAA | 0.156 |
| GACCGGAC | -0.278 |
| CACGAGTC | -0.162 |
| CTCTAATC | -0.18 |
| ACCTTCGC | -0.052 |
| CAGCGGAG | -0.172 |
| ATTAAGGA | -0.184 |
| ATTCTTTG | 0.141 |
| GCTGATGA | 0.0162 |
| GCCATTCA | -0.128 |
| AGCTGCGA | -0.191 |
| CTAGTGAA | -0.0558 |
| ACCCAAAC | -0.0155 |
| ATGTCTTC | 0.169 |
| CCAGGGAC | -0.211 |
| ATCCCCAC | -0.203 |
| CAGGTCCA | -0.122 |
| CTTGCGCC | -0.0718 |
| CACCACTG | -0.19 |
| CCGACTAC | 0.00778 |
| ATCGACGA | -0.0988 |

| Sequence | PBM E-score |
| --- | --- |
| ACGAAGCG | -0.0556 |
| CAAAGTGG | -0.35 |
| AGTACGTA | 0.291 |
| GGTAGACC | -0.213 |
| GACCGACC | -0.101 |
| GTGACCGA | -0.182 |
| AGCGCCCT | -0.182 |
| AAGAGGCC | -0.402 |
| GTTCGTGA | -0.156 |
| GACTTCGC | -0.102 |
| CGCTGTTC | 0.0777 |
| CTGTTTGA | 0.0416 |
| AATGTAGG | 0.0581 |
| AGTCCCTG | -0.284 |
| CCCTAGAC | -0.219 |
| AGCTGTGG | -0.233 |
| ACCGAACG | -0.0417 |
| GCGCGAAA | 0.189 |
| GTAAAAAC | 0.385 |
| GCTCGGAA | -0.153 |
| CCTAAACG | -0.0497 |
| GCTCCCTA | -0.232 |
| AGTTTTAA | 0.169 |
| AGGCTACG | -0.0627 |
| ATGGATCA | -0.123 |

| Sequence | PBM E-score |
| --- | --- |
| AAGCCTGG | -0.168 |
| CCTGTGGC | -0.193 |
| CAAATCCC | -0.318 |
| CTGTCCGA | -0.0331 |
| CATATCCA | -0.108 |
| AACAGGCT | 0.109 |
| CACAAGAC | -0.102 |
| AAGAGTAT | 0.0109 |
| AGCACAGC | 0.0215 |
| TTGGCCAA | -0.236 |
| AGGCCGAC | -0.413 |
| GCGCTAGA | -0.0843 |
| TAACTCTA | -0.104 |
| CAGAACAC | 0.141 |
| AAGGTTCA | -0.0691 |
| TGGCTTAA | 0.146 |
| TCGCTAGA | -0.205 |
| ATTGCCAG | -0.159 |
| AATACCAC | -0.0268 |
| AAATTTTG | -0.0314 |
| AATTTCGG | -0.154 |
| ACTGTCCT | -0.156 |
| AAGTCAGC | 0.0573 |
| AGCACTGC | -0.17 |
| GGTACCAC | -0.216 |

| Sequence | PBM E-score |
| --- | --- |
| AGACTCGA | -0.211 |
| ATTTGGCG | -0.0112 |
| CTCGGCTA | -0.182 |
| CTCTGGAC | -0.0396 |
| GCATAAGA | -0.109 |
| ATAGTACC | -0.13 |
| CTGGTACC | -0.134 |
| TTCGCCAA | -0.154 |
| CATCGGCG | -0.266 |
| ACAGTGAC | -0.021 |
| ATGCGGAC | -0.145 |
| CGTCAATA | -0.0292 |
| GCTTCTCC | -0.326 |
| ACTCTGCG | -0.0577 |
| CCGCCACC | -0.208 |
| ATAGCGCG | 0.0323 |
| ACACTCTG | 0.11 |
| TAGCCCAA | -0.0672 |
| GTGCACAC | -0.153 |
| CAACAAAC | 0.215 |
| CTAATCCA | -0.235 |
| CAGAACCG | 0.113 |
